From the supplement of paper PMC3334620 come the findings set out here.

The full ranking holds about 33,000 sequences; the median of “E-score (-0.5 to 0.5)” is about -0.016, and the highest 2% start at about 0.32. The list shows a part of the results.

The assay has as its target T1, Stp1 (UniProt B3LFK1).
T1 sequence: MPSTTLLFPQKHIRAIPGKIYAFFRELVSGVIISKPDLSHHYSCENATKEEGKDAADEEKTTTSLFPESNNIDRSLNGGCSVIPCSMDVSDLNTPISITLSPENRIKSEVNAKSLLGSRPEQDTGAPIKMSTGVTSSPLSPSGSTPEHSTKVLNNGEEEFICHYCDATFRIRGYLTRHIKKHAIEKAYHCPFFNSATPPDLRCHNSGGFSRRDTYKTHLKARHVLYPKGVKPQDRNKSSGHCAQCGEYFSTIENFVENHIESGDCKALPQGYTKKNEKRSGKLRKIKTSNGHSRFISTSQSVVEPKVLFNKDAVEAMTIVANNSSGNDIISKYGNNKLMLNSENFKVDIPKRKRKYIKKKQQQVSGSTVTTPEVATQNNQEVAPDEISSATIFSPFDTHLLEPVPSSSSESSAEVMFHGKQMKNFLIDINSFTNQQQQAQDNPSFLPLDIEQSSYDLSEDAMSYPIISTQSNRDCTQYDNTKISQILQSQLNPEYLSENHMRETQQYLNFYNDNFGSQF
The experiment in a line: PBM E-score (8-mer binding enrichment) (E-score (-0.5 to 0.5)); higher = stronger / more preferred TF binding; most listed sequences are background and not binding sites. The following applies: protein concentration: 200 nM; construct: GST-full length. The gist of the method: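 Yeast transcription factors carrying a GST tag, as full-length proteins or DNA-binding domains, were produced by PURExpress in vitro transcription/translation. About 100-200 nM protein was applied to universal all-10-mer Agilent arrays, double-stranded by primer extension on fresh or once-stripped slides. Bound protein was detected with fluorescent anti-GST, and scans were normalised with masliner. The Universal PBM Analysis Suite gave each ungapped eight-base word, pooled with its reverse complement, an E-score, a modified Wilcoxon-Mann-Whitney statistic.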
For CTTGAAGC, the “PBM E-score” value turned out to be 0.0461.

GAACTCAC: the “PBM E-score” value was -0.0539.

Turning to AGAACCCA, the “PBM E-score” value was -0.163.

In the case of ACACCAGT, the “PBM E-score” value was -0.162.

Regarding ACACAAAC, the “PBM E-score” value was found to be 0.161.

For the sequence GCCCTGGA, the “PBM E-score” value is -0.0883.

With CCCGATGC, the “PBM E-score” value is -0.117.

Consider GCACTGAC, for which the “PBM E-score” value is -0.0501.

As for CCCAGACA, the “PBM E-score” value is -0.22.

For CCACGAGA, the “PBM E-score” value is -0.181.

Regarding AGTCCTCC, the “PBM E-score” value is -0.261.

With GAGGACCA, the “PBM E-score” value is -0.192.

Turning to GGCTATGA, the “PBM E-score” value was -0.00825.

As to TATTTGGA, the “PBM E-score” value is -0.0571.

Regarding CATAGGAA, the “PBM E-score” value was -0.0906.

For CGGCGGAA, the “PBM E-score” value is 0.328.

Regarding AATCTAAT, the “PBM E-score” value was determined as 0.0617.

In the case of GTGTGTTA, the “PBM E-score” value worked out at 0.029.

As to ATCCGTGC, the “PBM E-score” value was found to be 0.41.

On to ATGGACCA, for which the “PBM E-score” value is -0.035.

In the case of CGCGCAAC, the “PBM E-score” value amounted to 0.0208.

Consider ACTATCCA, for which the “PBM E-score” value was -0.131.

On to AAATGGGG, for which the “PBM E-score” value is -0.139.

As for CCACGTTA, the “PBM E-score” value stood at 0.0417.

As for ATAGGACA, the “PBM E-score” value was -0.216.

Take CTCCCTCA: the “PBM E-score” value is -0.23.

As to AACCCTTC, the “PBM E-score” value was -0.11.

In the case of ATCAATAG, the “PBM E-score” value was -0.0562.

With AATTCGTC, the “PBM E-score” value was 0.207.

As to CTAGAGTA, the “PBM E-score” value is 0.0523.

With ACGCTTGA, the “PBM E-score” value is 0.127.

As for AGGCGCCG, the “PBM E-score” value stood at 0.462.

Regarding AGTGTTAC, the “PBM E-score” value was 0.061.

Take ACCGCATG: the “PBM E-score” value is 0.126.

As to AAGGCCGT, the “PBM E-score” value was found to be 0.358.

Turning to CCGCAGCA, the “PBM E-score” value turned out to be 0.269.

On to ATTACCTG, for which the “PBM E-score” value is 0.0903.

For CTTTTAAA, the “PBM E-score” value is 0.193.

As for CAAAGGGC, the “PBM E-score” value was 0.157.

On to ATGGGACG, for which the “PBM E-score” value is -0.132.

Turning to CATGCTCG, the “PBM E-score” value was -0.0846.

As to AAGGCTTA, the “PBM E-score” value is -0.0391.

As for GTAGTATA, the “PBM E-score” value was 0.121.

Take AAATGGCA: the “PBM E-score” value was found to be 0.246.

For AGAGTACG, the “PBM E-score” value was determined as 0.0192.

In the case of TCCGTTCA, the “PBM E-score” value was found to be 0.0192.

As for ATTCTAAA, the “PBM E-score” value amounted to 0.109.

CCATTGAC: the “PBM E-score” value was 0.0797.

Regarding AGATTAAA, the “PBM E-score” value turned out to be 0.189.

Turning to CCAGCCGC, the “PBM E-score” value worked out at 0.125.

Take GAGGGACA: the “PBM E-score” value was -0.0502.

Turning to ATGTTAAT, the “PBM E-score” value is 0.117.

As to ATCGGAGC, the “PBM E-score” value was -0.145.

As for ATAAGGGA, the “PBM E-score” value was -0.128.

Regarding CGAAGGAA, the “PBM E-score” value came to 0.0454.

With AGGCTCGC, the “PBM E-score” value was -0.0985.

Take AACGTAAT: the “PBM E-score” value was determined as 0.0445.

On to CTGTTAAG, for which the “PBM E-score” value is -0.0727.

Turning to ATTGTTAA, the “PBM E-score” value is -0.0126.

With CACCGCTA, the “PBM E-score” value was -0.178.

Turning to CGGCCAAA, the “PBM E-score” value was found to be 0.145.

As to GTCGATTA, the “PBM E-score” value is 0.00519.

For TCACGTAA, the “PBM E-score” value is -0.021.

For GGTTACCA, the “PBM E-score” value was -0.00326.

Consider TCCATGAA, for which the “PBM E-score” value stood at 0.0963.

CGAGCAAC: the “PBM E-score” value is 0.213.

As to GCCCCCGC, the “PBM E-score” value was -0.0565.

With ACGGCCAT, the “PBM E-score” value was found to be 0.235.

As for GACGCTGA, the “PBM E-score” value is -0.183.

For the sequence AGCAAGCA, the “PBM E-score” value was -0.192.

With GCTTGACA, the “PBM E-score” value worked out at 0.18.

For the sequence AACTGTGT, the “PBM E-score” value was -0.00345.

With TAGAGGAA, the “PBM E-score” value was -0.158.

On to AAAGCGCT, for which the “PBM E-score” value was 0.16.

Take ATCACGCA: the “PBM E-score” value amounted to 0.028.

On to ACGCGGAT, for which the “PBM E-score” value was 0.236.

Consider ATTTCCCG, for which the “PBM E-score” value worked out at 0.221.

As to CTGGTCGC, the “PBM E-score” value amounted to 0.0352.

For the sequence CGTCGGGA, the “PBM E-score” value is -0.134.

ATTGGCAA: the “PBM E-score” value was found to be 0.0625.

Consider GTAGCGGA, for which the “PBM E-score” value turned out to be 0.0599.

As to ACTAAGGC, the “PBM E-score” value was determined as 0.177.

Take CCGTGTTA: the “PBM E-score” value worked out at 0.262.

As to ACCTTTAG, the “PBM E-score” value is -0.0106.

Regarding ATGTACTA, the “PBM E-score” value came to 0.155.

In the case of CCAATCAG, the “PBM E-score” value is -0.218.

AGCGGCAG: the “PBM E-score” value came out at 0.301.

Consider CGTCACTA, for which the “PBM E-score” value came to 0.0552.

For the sequence CCTGTTAA, the “PBM E-score” value is -0.08.

In the case of ATAGAACA, the “PBM E-score” value was found to be 0.0308.

On to AGAGTGTA, for which the “PBM E-score” value was -0.185.

With AAAGGTCT, the “PBM E-score” value was -0.012.

Turning to AATACACA, the “PBM E-score” value turned out to be 0.0147.

On to CCCTCCGC, for which the “PBM E-score” value is -0.288.
